{"source": "the antibiotic and cytotoxicity screens of Wong et al. (2023)", "note": "The other results are listed elsewhere or left out.", "data": [{"test_system": "HSkMC (human skeletal muscle cells)", "assay": "cytotoxicity call (relative viability < 0.9)", "settings": "10 µM", "values": [{"smiles": "Cc1cc(C(=O)Nc2cccc3c2O[C@@H](CN(C)C(=O)Nc2c(C)noc2C)[C@@H](C)CN([C@H](C)CO)C3=O)n(C)n1", "cytotoxicity call": "inactive"}, {"smiles": "CN1CCN(C(=O)C[C@@H]2C[C@H]3c4cc(NC(=O)c5ccc6c(c5)OCO6)ccc4O[C@H]3[C@@H](CO)O2)CC1", "cytotoxicity call": "inactive"}, {"smiles": "C[C@@H]1CN([C@H](C)CO)C(=O)c2cc(NC(=O)c3ccccc3)ccc2O[C@@H](C)CCCCO[C@H]1CN(C)Cc1ccc(C(=O)O)cc1", "cytotoxicity call": "inactive"}, {"smiles": "C[C@H](CO)N1C[C@H](C)[C@H](CN(C)C(=O)Nc2ccc(C(F)(F)F)cc2)Oc2ccc(NC(=O)CCCCCC(=O)Nc3ccccc3N)cc2C1=O", "cytotoxicity call": "inactive"}, {"smiles": "CNC(=O)c1c(N)cnn1C", "cytotoxicity call": "inactive"}, {"smiles": "C[C@@H]1CN([C@H](C)CO)C(=O)c2cc(NS(=O)(=O)c3ccc(F)cc3)ccc2O[C@@H](C)CCCCO[C@@H]1CN(C)S(=O)(=O)c1cn(C)cn1", "cytotoxicity call": "inactive"}, {"smiles": "C[C@@H]1CCCCO[C@H](CN(C)Cc2ccc3c(c2)OCO3)[C@@H](C)CN([C@@H](C)CO)C(=O)c2cc(NS(=O)(=O)c3cccs3)ccc2O1", "cytotoxicity call": "inactive"}, {"smiles": "CCOC[C@@H](O)CS(=O)(=O)c1ccccn1", "cytotoxicity call": "inactive"}, {"smiles": "CC(C)NC(=O)Nc1ccc2c(c1)C(=O)N([C@H](C)CO)C[C@@H](C)[C@H](CN(C)S(=O)(=O)c1cn(C)cn1)O2", "cytotoxicity call": "inactive"}, {"smiles": "Cn1c(=O)c2[nH]c(NCCN3CCOCC3)nc2n(C)c1=O", "cytotoxicity call": "inactive"}, {"smiles": "C[C@@H]1CCCCO[C@@H](CN(C)C(=O)CCC(F)(F)F)[C@H](C)CN([C@H](C)CO)C(=O)c2cc(NC(=O)C3CCCCC3)ccc2O1", "cytotoxicity call": "inactive"}, {"smiles": "COc1ccc([Si](C)(C)[C@H]2[C@H](CCO)O[C@@]3(C(=O)N(Cc4cccc(N5C(=O)c6cccc7cccc5c67)c4)c4ccccc43)[C@@H]2C)cc1", "cytotoxicity call": "inactive"}, {"smiles": "Cc1ccc(S(=O)(=O)Nc2ccc3c(c2)CC(=O)N([C@H](C)CO)C[C@H](C)[C@H](CN(C)CC2CC2)O3)cc1", "cytotoxicity call": "inactive"}, {"smiles": "C[C@@H]1CN([C@H](C)CO)C(=O)Cc2cc(NS(=O)(=O)c3cccs3)ccc2O[C@H]1CN(C)Cc1ccc(Cl)c(Cl)c1", "cytotoxicity call": "active"}, {"smiles": "Cn1cnc(S(=O)(=O)N[C@H]2CC[C@@H](CC(=O)NCC3CC3)O[C@H]2CO)c1", "cytotoxicity call": "inactive"}, {"smiles": "Cc1ccc(S(=O)(=O)Nc2ccc3c(c2)CC(=O)N([C@@H](C)CO)C[C@@H](C)[C@@H](CN(C)CC2CC2)O3)cc1", "cytotoxicity call": "inactive"}, {"smiles": "C[C@@H]1CN([C@@H](C)CO)C(=O)Cc2cc(NC(=O)Nc3ccc(C(F)(F)F)cc3)ccc2O[C@H]1CN(C)C(=O)Nc1ccccc1", "cytotoxicity call": "inactive"}, {"smiles": "Cc1noc(C)c1S(=O)(=O)Nc1ccc2c(c1)C(=O)N([C@@H](C)CO)C[C@H](C)[C@H](CN(C)C(=O)Nc1ccc(C(F)(F)F)cc1)OCCCC[C@H](C)O2", "cytotoxicity call": "inactive"}, {"smiles": "C[C@H](CO)N1C[C@H](C)[C@H](CN(C)S(=O)(=O)c2cn(C)cn2)Oc2ncc(Br)cc2C1=O", "cytotoxicity call": "inactive"}, {"smiles": "NCC[C@H]1CC[C@@H](NC(=O)C2CC2)[C@@H](CO)O1", "cytotoxicity call": "inactive"}, {"smiles": "C[C@H](CO)N1C[C@H](C)[C@@H](CN(C)Cc2ccc(C(F)(F)F)cc2)Oc2ccc(NC(=O)Nc3ccccc3)cc2C1=O", "cytotoxicity call": "inactive"}, {"smiles": "CCS(=O)(=O)Nc1ccc2c(c1)C(=O)N(C)C[C@H](OC)[C@@H](C)CN(Cc1ccccn1)[C@H](C)CO2", "cytotoxicity call": "inactive"}, {"smiles": "C[C@@H]1CN([C@@H](C)CO)C(=O)c2cccc(NC(=O)c3ccncc3)c2O[C@@H]1CN(C)S(=O)(=O)c1cn(C)cn1", "cytotoxicity call": "inactive"}, {"smiles": "CCCN(C)C[C@H]1Oc2cc(C#Cc3cccc(OC)c3)ccc2S(=O)(=O)N([C@H](C)CO)C[C@H]1C", "cytotoxicity call": "inactive"}, {"smiles": "COc1cccc(O)c1O", "cytotoxicity call": "inactive"}, {"smiles": "CC(C)NC(=O)N(C)C[C@H]1Oc2ccc(NS(=O)(=O)c3ccc(Cl)cc3)cc2CC(=O)N([C@@H](C)CO)C[C@H]1C", "cytotoxicity call": "inactive"}, {"smiles": "O=S(=O)(C1CCCCC1)C1CNC1", "cytotoxicity call": "inactive"}, {"smiles": "CO[C@H]1O[C@H](CO)[C@@H](OC(=O)Nc2ccccc2)[C@@H]2OC(=O)[C@H](Cc3cccc(Br)c3)C/C=C/C[C@@H](Cc3cccc(Br)c3)C(=O)O[C@@H]12", "cytotoxicity call": "inactive"}, {"smiles": "C[C@H](CO)N1C[C@H](C)[C@H](CN(C)Cc2ccc(C(F)(F)F)cc2)OCCCC[C@H](C)Oc2ccc(NC(=O)c3ccccc3)cc2C1=O", "cytotoxicity call": "inactive"}, {"smiles": "Cn1cnc2c(C(F)(F)F)nc(N)nc21", "cytotoxicity call": "inactive"}, {"smiles": "O=C(C[C@@H]1CC=CCC[C@@H](Cc2ccc(F)cc2)C(=O)OCCNC1=O)N[C@@H](CO)Cc1ccccc1", "cytotoxicity call": "inactive"}]}]}
